Tested on: H1299 cells
Assay: FACS detection of engineered DLL3 on the surface of transfected H1299 cells (Example 4)
Type: cell-based, human
Details: H1299 cells transfected with construct, fluorescently labeled anti-DLL3 antibody, compared to wild-type DLL3 (NP116, NP127)
Text: Each of the six engineered DLL3 constructs ([…]) and two different wild-type DLL3 constructs (NP116 and NP127) was separately introduced to human non-small cell lung carcinoma, H1299 cells (also known as NCI-H1299 or CRL-5803) by transfection to analyze the expression of engineered DLL3. H1299 cells were then stained with fluorescently labeled anti-DLL3 antibodies and analyzed by fluorescence-activated cell sorting (FACS) to detect DLL3 expression. Panels A2-G2 in FIG. 8B, and NP116, NP127, NP244-NP249, and NP268 in FIG. 8C show the amount of DLL3 expressed on the cell surface corresponding to panels A1-G1 in FIG. 8A. […] Specifically, NP249 and NP247 increased percent positive to ˜80% and ˜94%, respectively (FIG. 8C).

B1: NP248: engineered DLL3 construct, GM-CSF SP, hIgG4 Fc domain, CD4 transmembrane helix; SEQ ID NO: 38 (protein)
chain: MLLLVTSLLLCELPHPAFLLIPAGVFELQIHSFGPGPGPGAPRSPCSARLPCRLFFRVCLKPGLSEEAAESPCALGAALSARGPVYTEQPGAPAPDLPLPDGLLQVPFRDAWPGTFSFIIETWREELGDQIGGPAWSLLARVAGRRRLAAGGPWARDIQRAGAWELRFSYRARCEPPAVGTACTRLCRPRSAPSRCGPGLRPCAPLEDECEAPLVCRAGCSPEHGFCEQPGECRCLEGWTGPLCTVPVST[human IgG4 Fc not shown]MALIVLGGVAGLLLFIGLGIFFHMGGGSGGGSAYPYDVPDYAAYPYDVPDYA
  expression level of DLL3 on the cell surface: increased the expression level of DLL3

Source: patent publication US20250144249A1, “METHODS USING SURFACE-EXPRESSIBLE ACTIVATABLE EPITOPES TO LOCALIZE AND/OR TREAT DISEASED CELLS” (EARLI Inc., priority 2022, published 2025)
